± gives the standard deviation of the averaged measurements. The list shows a part of the results.

The subject of the test is PfAP2-I AP2 domain 3 (GST-tagged). Briefly: gcPBM binding intensity (ln(normalized median fluorescence intensity)); higher = stronger DNA binding. The method, boiled down: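 Plasmodium falciparum DNA-binding domains carrying a GST tag were expressed in E. coli and applied for 1 h, at about 25 μg on average, to an Agilent 4 × 180k array. The array held primer-extended double-stranded 36-bp intergenic genomic probes together with negative controls, and binding took place in 1× PBS with 1% milk, 0.2 mg/ml BSA, 0.5% salmon testes DNA and 0.03% Triton X-100. An Alexa488 anti-GST antibody detected bound protein, and the array was scanned at 488 nm. Binding intensity is taken as the highest Masliner-normalised natural-log median intensity across replicate spots of either probe orientation.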
As to “GATATATGTATAATAACGCACACTACAAAAATAAAA [CACACA_site2100]”, the “gcPBM binding intensity (ln)” value was determined as 10.2 ± 0.61.
For the sequence “TTTTTTATGAGGTGGTGTACTTTTTTTTTTTTCTTT [XGTACX_site8550]”, the “gcPBM binding intensity (ln)” value came to 8.23 ± 0.2.
Regarding “TGGTAATACCCATACACACACACATACCCATATATA [CACACA_site5509]”, the “gcPBM binding intensity (ln)” value amounted to 8.1 ± 0.24.
To ATAAATAAAACAACAGTGCAATAAAATTAGTTGAGG belongs 10.9 ± 0.25; to “ATTAAAGAGAGACATCAACACACATACGTATGTATA [CACACA_site8393]”, 7.52 ± 0.38.
Regarding “CAAGAAACAGTGATACGTACACATATATATATATAT [XGTACX_site3229]”, the “gcPBM binding intensity (ln)” value was 9.35 ± 0.2.
The result for “TAATATATTATAAACACATGCACATTAATAATAACT [TGCATGCA_site708]” reads 8.08 ± 0.58; that for TATATATATATATATGTGCACATTTTATTAAAATGT, 9.87 ± 0.15; that for “ATAGACATTTTACTTTGTACATATAAACATATATAT [XGTACX_site2733]”, 7.97 ± 0.64.
Turning to ATATGAAACATGAAGGTGCATAATGTGTATATTTAT, the “gcPBM binding intensity (ln)” value was 11.3 ± 0.69.
To “ACATAAATATATTTTTCACACATCATTAGTTATGAA [CACACA_site4724]” belongs 7.93 ± 0.45; to “TATTTTTTAAAAAAACGTACAAACATAATAAAAATA [XGTACX_site1857]”, 8.24 ± 0.28.
On to “ATTTTCAAATTATCAGATGAATCTTTTTAAGATCTT [XGTACX_negctrl_site598]”, for which the “gcPBM binding intensity (ln)” value was determined as 7.05 ± 0.73.
To “AAACTATACCAAAACACACATACAAAATATAAAAAA [CACACA_site2707]” belongs 7.83 ± 0.39.
The result for “TTTTTTTTTTTTTTTTTACACACTGCATACAAGAAA [CACACA_site3026]” reads 8.47 ± 0.52.
For the sequence “GTCTGCATATGGATACGTACACATATATATTAATGT [XGTACX_site2260]”, the “gcPBM binding intensity (ln)” value is 8.29 ± 0.38.
The result for “GGGAAAAAATGAGGTCGTACATTTTTCATCACAAAT [XGTACX_site8920]” reads 7.93 ± 0.47.
To “CTCATATATAACACATGTACACAGATTTTGCAAATG [XGTACX_site6879]” belongs 8.27 ± 0.27.
To “AATGAATGTACATACGCATGTACTTGACTAAATTAT [TGCATGCA_site436]” belongs 7.83 ± 0.55; to “ATGTTATATTTTTTTATACACACTGGAATATATAAA [CACACA_site215]”, 7.95 ± 0.54; to “ATTTATAATGAGTATACACACATATATAGATTTGCT [CACACA_site4517]”, 7.63 ± 0.49.
“ATTATTATTGTCAAATGTACAAGCTAATAATTTTTA [XGTACX_site7167]”: the “gcPBM binding intensity (ln)” value amounted to 7.54 ± 0.41.
As for “TATATATATATATATTGTACTTTATTTTATATATTC [XGTACX_site5697]”, the “gcPBM binding intensity (ln)” value came to 9.24 ± 1.
Turning to “AAAAAAAAAAAAAACATACACACAAGAACAAAATAT [CACACA_site3003]”, the “gcPBM binding intensity (ln)” value is 8.05 ± 0.56.
The result for “CAACAACATTTTTCATGTACATATATTTTATAATAT [XGTACX_site519]” reads 7.83 ± 0.39; that for “TAAAAAATAAAATACACACACATATTTATATTTATA [CACACA_site6737]”, 7.41 ± 0.4; that for “AAACATTTAAATGGAAACACAGAAAAATGAAAAATG [CACACA_negctrl_site457]”, 8.05 ± 0.65.
The result for “TTTTTTTTTTGTAATACACACCACTATATGTTATTT [CACACA_site5087]” reads 8.24 ± 0.65; that for “ATATATATATATACATGTACATATATACATTATATT [XGTACX_site936]”, 9.11 ± 0.42.
For the sequence “ATATATATATATATATGTACATATTTTTTATTTTAT [XGTACX_site5761]”, the “gcPBM binding intensity (ln)” value was 9.36 ± 0.42.
On to “ATATGTTACTTTACATAAAGAAGAAGAAGAAGAAAA [CACACA_negctrl_site985]”, for which the “gcPBM binding intensity (ln)” value was found to be 7.47 ± 0.53.
As to “TATTATTCAAATAAAAGAAAAATATATATATTATAT [GTGCAC_negctrl_site273]”, the “gcPBM binding intensity (ln)” value came out at 7.63 ± 0.42.
For the sequence “TCCCCCTTTTTTTGATTTTTATCTTAATTCTAAAAG [GTGCAC_negctrl_site541]”, the “gcPBM binding intensity (ln)” value was found to be 7.85 ± 0.38.
Regarding “TTTCAAAAAGGAAGAAAAAAAAAAAAAAAAAATATA [XGTACX_negctrl_site514]”, the “gcPBM binding intensity (ln)” value worked out at 7.34 ± 0.52.
Turning to “TTTTTTCTTTTCAAGGTGCTTTATAAGAAAAAGGGA [GTGCAC_site9858]”, the “gcPBM binding intensity (ln)” value is 11.1 ± 0.89.
To “AAAAAAAAAAAAAACACACACACACCCAAATACATA [CACACA_site708]” belongs 8.48 ± 0.54; to “AGTATTATATTTTCTTGTACACATGTAAAATACCTC [XGTACX_site1359]”, 8.28 ± 0.35.
On to “TATTTTATCATTTGCACACGCACACCCACATAAAAA [CACACA_site354]”, for which the “gcPBM binding intensity (ln)” value was 9.68 ± 0.15.
To “TATATTAAAACAAGCACACAATCGCATAATATCCTT [CACACA_site3210]” belongs 7.76 ± 0.65.
With “AAAAAAAAAAAAAAAACACACATATATGTATATATA [CACACA_site3276]”, the “gcPBM binding intensity (ln)” value was 8.65 ± 0.41.
The result for “CAATTACGCAGGAATGCACACAATAATAAAAAAAAT [CACACA_site3513]” reads 8.99 ± 0.19; that for “CTATTTCAGAAACACACACACACAAACAAACATATA [CACACA_site978]”, 8.04 ± 0.21.
“TTAGAGAAACAAAATTGTACATTATAAATTTGCCTT [XGTACX_site440]”: the “gcPBM binding intensity (ln)” value was found to be 7.49 ± 0.53.
To “CAAGAAATTTACAAACGTACATATGTTCATACAAGG [XGTACX_site2372]” belongs 7.77 ± 0.73; to “TATTTGAAAGCCAATTGTACTTTAGTTTTTGAAACA [XGTACX_site5542]”, 7.53 ± 0.32.
For “TTAAATATAATATTATGTACTAAATATTTTTTTATT [XGTACX_site6121]”, the “gcPBM binding intensity (ln)” value is 7.54 ± 0.38.
The result for TTTCTTTTTAAATAGGTGCATATTTTTATAAATATA reads 9.95 ± 0.42; that for “ATATATTTACATATTACACACAATATTGTACACATA [CACACA_site6564]”, 8.24 ± 0.47; that for “TTTATATATATTCTCACACACTTTTTATTTTAACAA [CACACA_site4534]”, 7.87 ± 0.55.
To “AAAAATATTTATAACACACACATAATATTTATATAT [CACACA_site7238]” belongs 7.83 ± 0.59; to “ATAAATTTCCTCGTTTTTTTTTTTTTTTTTTTTTTT [CACACA_negctrl_site1173]”, 9.78 ± 0.028.
Take “TAAGGATGAATCCTTTGTACATATATATATATATAT [XGTACX_site1242]”: the “gcPBM binding intensity (ln)” value was 9.26 ± 0.4.
As for “GTTATACATTTTGATTGTACATAAACCATTTGAGCA [XGTACX_site7283]”, the “gcPBM binding intensity (ln)” value was determined as 7.92 ± 0.35.
“TGAAAAGAAAACACATGTACAAATATATAAATATAA [XGTACX_site6098]”: the “gcPBM binding intensity (ln)” value was found to be 7.59 ± 0.67.
To “TTTTTTTAAATATACACACACATTTATACATATATA [CACACA_site3400]” belongs 7.97 ± 0.5.
For the sequence “TATAAACATATCATATGTACATATATTTTTATAAAA [XGTACX_site8882]”, the “gcPBM binding intensity (ln)” value is 7.58 ± 0.19.
Turning to ATATATTTTTGTAGTGTGCACGTTTATATGGTGAAA, the “gcPBM binding intensity (ln)” value came to 10.7 ± 0.32.
On to “TTTAACGTTGAATATACACACATATATATATATATA [CACACA_site3698]”, for which the “gcPBM binding intensity (ln)” value amounted to 9.22 ± 0.31.

The values are drawn from the supplement of paper PMC11417369.
